In all, about 280,000 compounds went through this assay and about 540 (0.19%) were called active. Inconclusive means that the source gave no clear call. Such entries were picked first, then a sample of the others. The call rests on the fitted dose curve; in most records, active means well fitted activation curve with a large enough effect; inconclusive means small, poorly fitted or top-dose-only effect; inactive means flat fitted curve, though single readings scatter. Where the call is inconclusive, the potency comes from a doubtful curve fit.
assay: Quantitative High-Throughput Screen for Regulators of Epigenetic Control; conditions: murine LDR cells, GFP reporter derepression, 30 h; GFP activation: at 53.9 µM (top of the series); further: nearly all actives have a fitted effect of over 60% in size; on GFP activation: % of control where 0% means no effect
In short: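 Murine LDR cells bearing a silenced CMV-driven GFP reporter were exposed to compound for 30 h at 37 C. After PBS washes, GFP-positive cells (20-120 um objects) counted by laser-scanning microplate cytometry.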
Potency means the concentration at half of the fitted maximal effect; tags describe the fitted curve by direction and shape.

| SMILES | GFP activation | Potency |
| --- | --- | --- |
| COc1ccc(CC(=O)N2N=C(c3ccncc3)CC2(O)C(F)(F)F)cc1 (stereo not given) | inactive: 0% |  |
| O=C(CSc1ccc(-c2cccs2)nn1)Nc1ccccc1 |  | inconclusive: 25.1 µM [activator, single point] |
| CCOC(=O)C1CCCN(c2nc3ccccc3nc2C(C#N)C(=O)NCc2ccccc2)C1 (stereo not given) |  | inconclusive: 31.6 µM [activator, single point] |
| Cc1cccc(NC(=O)Cn2c(=O)n(Cc3ccccc3)c(=O)c3sc4ccccc4c32)c1 | inactive: -0.885% |  |
| Cc1cccc(NC(=O)CSc2ccc(-c3sc(-c4ccccc4)nc3C)nn2)c1C |  | inconclusive: 20 µM [activator, single point] |
| COC(=O)c1ccccc1NC(=O)C1CCCC1 | inactive: -7.47% |  |
| N#C/C(=C\c1cccs1)C(=O)c1ccccc1Cl |  | inconclusive: 25.1 µM [activator, single point] |
| N#Cc1ccccc1NC(=O)CSc1nc(-c2ccccc2)cc(C(F)(F)F)c1C#N |  | active: 12.6 µM |
| O=C(Nc1nc(-c2cc(F)ccc2F)cs1)c1ccccn1 |  | inconclusive: 31.6 µM [activator, single point] |
| COc1ccc(Cc2nc(-c3ccc(-n4cccc4)cc3)no2)cc1 | inactive: 0.98% |  |
| CN(C)c1ccc(/C=C/c2cc[n+]([O-])cc2)cc1 | inactive: 0% |  |
| CCN1C(C)=C(C)S/C1=C1\SC(=S)N(N)C1=O |  | inconclusive: 31.6 µM [activator, single point] |
| Brc1ccc(-c2nc(N/N=C/c3cccnc3)c3ccccc3n2)cc1 |  | inconclusive: 31.6 µM [activator, single point] |
| N#C/C(=C/c1ccc(N2CCCCC2)o1)C(=O)Nc1ccc2ccccc2c1 |  | active: 2.51 µM |
| Cc1cc(C)cc(N=C2SC(CC(=O)Nc3ccccc3)C(=O)N2CCN2CCOCC2)c1 (stereo not given) |  | inconclusive: 35.5 µM [activator, single point] |
| O=C(NCCNC(=O)c1ccc(Br)o1)c1ccc(Br)o1 | inactive: -3.2% |  |
| O=C1C=C(c2ccc(Cl)cc2)C(=O)N1Nc1ccccc1 |  | inconclusive: 6.31 µM [activator, single point] |
| Cc1ccc(C(=O)c2cn(Cc3cc(C)ccc3C)c3nc(C)ccc3c2=O)cc1 | inactive: -1.77% |  |
| Cc1ccccc1Cn1c(-c2cccs2)nc2ccccc21 |  | inconclusive: 35.5 µM [activator, single point] |
| O=C(Nc1ccccn1)Nc1cccs1 | inactive: 6.73% |  |
| Cn1cccc1/C=C1\SC(=O)N(CC(=O)Nc2ccc(F)cc2)C1=O |  | inconclusive: 28.2 µM [activator, single point] |
| Cc1csc2nc(COC(=O)c3cccc(NC(=O)COc4ccccc4Cl)c3)cc(=O)n12 |  | inconclusive: 35.5 µM [activator, single point] |
| O=C(N/N=C/C=C/c1ccco1)/C(=C/c1ccccc1)NC(=O)c1ccccc1 | inactive: 0.971% |  |
| Cc1ccc(C(=O)/C=C\NCc2ccccc2)cc1 |  | inconclusive: 15.8 µM [activator, single point] |

| SMILES | GFP activation | Potency |
| --- | --- | --- |
| Cc1cccc(/C(N)=N/OC(=O)COc2ccccc2Cl)c1 |  | inconclusive: 14.1 µM [activator, single point] |
| CC(=O)Nc1ccc(S(=O)(=O)N2CCN(c3nc(NC4CCCC4)c4ccccc4n3)CC2)cc1 |  | inconclusive: 31.6 µM [activator, single point] |
| COc1ccc(-n2c(NC(=O)c3ccco3)c(C#N)c3nc4ccccc4nc32)cc1 |  | inconclusive: 25.1 µM [activator, single point] |
| CCOc1cc2c(cc1OCC)C(CC(=O)OC)N(C(=O)Nc1cc(OC)ccc1OC)CC2 (stereo not given) |  | inconclusive: 17.8 µM [activator, single point] |
| CC[C@H](C)[C@H]1O[C@]2(CC[C@@H]1C)C[C@@H]1C[C@@H](C/C=C(\C)[C@H](O[C@@H]3C[C@H](OC)[C@H](O[C@@H]4C[C@H](OC)[C@@H](O)[C@H](C)O4)[C@H](C)O3)[C@@H](C)/C=C/C=C3\CO[C@@H]4[C@H](O)C(C)=C[C@@H](C(=O)O1)[C@]34O)O2 | inactive: 2.11% |  |
| Cc1cc(NC(=O)CSc2nc3c(sc4ccccc43)c(=O)n2CCc2ccccc2)n[nH]1 |  | inconclusive: 35.5 µM [activator, single point] |
| O=C(COc1ccc(F)cc1)Nc1nnc(SCc2cc(=O)n3ccccc3n2)s1 |  | inconclusive: 17.8 µM [activator, single point] |
| N#C/C(C(=O)c1ccccc1)=C1/SC=C(N)N1c1ccccc1 |  | inconclusive: 15.8 µM [activator, partial curve] |
| CCOC(=O)CN(C(=O)COc1nc(-c2ccccc2)cc(C)c1C#N)c1ccc(C)cc1 |  | inconclusive: 35.5 µM [activator, single point] |
| Nc1c(C(=O)Nc2nccs2)sc2nc(-c3cccs3)cc(C(F)(F)F)c12 |  | inconclusive: 31.6 µM [activator, single point] |
| CC(=O)Nc1ccc(/C=C/C(=O)c2ccccc2)cc1 |  | inconclusive: 35.5 µM [activator, single point] |
| Cc1nn(C)c(C(=O)Sc2cccc(Cl)c2)c1[N+](=O)[O-] |  | inconclusive: 28.2 µM [activator, single point] |
| COc1ccc(NC(=O)Cn2nc(-c3ccccc3)c3cnc4ccc(C)cc4c32)cc1 |  | inconclusive: 35.5 µM [activator, single point] |
| CN1CCN(C(=O)Cn2c(-c3cccs3)cc3ccccc32)CC1 | inactive: -1.23% |  |
| Cc1ccc2c(=O)c(C(=O)c3ccccc3)cn(CC(=O)Nc3ccc(C)c(Cl)c3)c2n1 |  | inconclusive: 22.4 µM [activator, single point] |
| CCOc1ccc(N=C(C)c2ccccc2O)cc1 |  | inconclusive: 35.5 µM [activator, single point] |
| Cc1ccc(NC(=O)c2nnn(Cc3cccc(C(F)(F)F)c3)c2N)c(C)c1 | inactive: -2.53% |  |
| Cc1ccnc(NC(=O)CCCOc2cc(=O)n(C)c3ccccc23)c1 |  | inconclusive: 31.6 µM [activator, single point] |
| Cc1cc(C(F)(F)F)nn1Cc1n[nH]c(=S)n1-c1cccc(Cl)c1 | inactive: -1.08% |  |
| Cn1c(-c2ccccc2)cc2c3no[n+]([O-])c3ccc21 |  | inconclusive: 22.4 µM [activator, single point] |
| CNC(=O)C1CC(=O)N(Cc2ccc3c(c2)OCO3)C(=Nc2ccc(OC)cc2)S1 (stereo not given) | inactive: -3.27% |  |
| COc1ccc(CNC(=O)CSc2nc(-c3ccccc3)cc(-c3cccs3)c2C#N)cc1 |  | inconclusive: 22.4 µM [activator, single point] |
| O=S(=O)(NCCCN1CCOCC1)c1ccc(Cl)s1 |  | inconclusive: 25.1 µM [activator, single point] |
| CN(C)c1ccc(N/C=C/C(=O)c2ccc(F)cc2)cc1 |  | inconclusive: 25.1 µM [activator, single point] |

| SMILES | GFP activation | Potency |
| --- | --- | --- |
| CN(C)c1cc(-c2ccc([N+](=O)[O-])cc2)oc(=O)c1Cl |  | inconclusive: 25.1 µM [activator, single point] |
| COC(=O)c1ccc(C2Nc3cccc4cccc(c34)N2)cc1 |  | inconclusive: 6.31 µM [activator, single point] |
| CCOC(=O)/C(C#N)=C1/SC(C)C(=O)N1c1ccc(Br)cc1 (stereo not given) | inactive: -1.18% |  |
| Cc1cn2c(=O)cc(COC(=O)c3ccc(NC(=O)C(C)Oc4ccccc4)cc3)nc2s1 (stereo not given) |  | inconclusive: 0.708 µM [activator, single point] |
| O=C(COC(=O)c1ccccn1)Nc1ccccc1OC(F)F | inactive: -0.0684% |  |
| CCc1nnc(NC(=O)c2ccc(OCc3c(C)noc3C)c(OC)c2)s1 | inactive: -0.365% |  |
| C=CCN1C(=O)/C(=C/C(=O)OC)S/C1=N\NC(=O)c1ccccc1 |  | inconclusive: 31.6 µM [activator, single point] |
| c1ccc(-c2nn3c(Cn4cnc5ccccc54)nnc3s2)cc1 | inactive: -7.29% |  |
| CCOC(=O)Cc1csc(NC(=O)CCCCCN2C(=O)c3ccccc3C2=O)n1 |  | inconclusive: 15.8 µM [activator, single point] |
| Cc1no[n+]([O-])c1COc1ccccc1/C=C1\NC(=S)NC1=O |  | inconclusive: 31.6 µM [activator, single point] |
| Oc1c(C(c2cccs2)N2CCN(c3ccccc3)CC2)ccc2cccnc12 (stereo not given) | inactive: 0.663% |  |
| S=c1nc(C23CC4CC(CC(C4)C2)C3)[nH][nH]1 | inactive: 1.08% |  |
| COCc1ccc(O)c2ncccc12 |  | active: 4.47 µM |
| CC(=O)Oc1ccc2c(c1)Oc1cc(OC(C)=O)ccc1C21OC(=O)c2ccccc21 |  | inconclusive: 17.8 µM [activator, partial curve] |
| O=[N+]([O-])c1ccc(C2=NN(c3ccccc3)C(c3ccco3)C2)cc1 (stereo not given) |  | active: 2 µM |
| N=c1oc2c3c4c(cc2cc1C(=O)Nc1ccccc1)CCCN4CCC3 |  | active: 0.282 µM |
| COc1cccc(C(=O)Oc2ccccc2/C=C\C(=O)c2cc3ccccc3o2)c1 | inactive: -1.09% |  |
| Cc1cc(NC(=O)c2cnn3c(C(F)F)cc(-c4ccccc4)nc23)no1 |  | inconclusive: 6.31 µM [activator, single point] |
| CC(C)Cn1c(N2CCN(C(=O)c3cccs3)CC2)nc2ccccc21 |  | inconclusive: 3.98 µM [activator, partial curve] |
| CCOC(=O)Cc1csc(NC(=O)c2sc3nc4ccc(CC)cc4cc3c2N)n1 |  | inconclusive: 31.6 µM [activator, single point] |
| CCc1ccc(NC(=O)c2sc3nc(C)c(C(=O)Nc4ccc(C)cc4C)c(-c4ccco4)c3c2N)cc1 |  | active: 17.8 µM |
| CCOc1ccc(CCNc2ncnc3onc(-c4ccc(Cl)cc4)c23)cc1 | inactive: 0% |  |

Source: PubChem BioAssay AID1865 (National Center for Advancing Translational Sciences (NCATS), 2009)
